Part of at least one peptide drawing is inferred or uncertain, most often the ends.
System: 15 different HLA-DR molecules
Assay: HLA-DR binding assays, panel of 15 different HLA-DR molecules (breadth of binding)
Details: number of the 15 HLA-DR molecules bound (binders: 1000 nM or better)

SMILES	Total XRN
CSCC[C@H](NC(=O)[C@H](CCC(N)=O)NC(=O)[C@H](CC(C)C)NC(=O)[C@@H](N)CC(C)C)C(=O)N[C@@H](CCC(=O)O)C(=O)N[C@@H](CC(C)C)C(=O)N[C@@H](CC(C)C)C(=O)N[C@@H](CC(C)C)C(=O)N[C@H](C(=O)N[C@@H](CC(N)=O)C(=O)N[C@@H](CCCCN)C(=O)N[C@@H](CC(C)C)C(=O)N[C@@H](CCCCN)C(=O)N[C@@H](Cc1c[nH]c2ccccc12)C(=O)N[C@@H](CC(N)=O)C(=O)O)C(C)C [Peptide 1622.06]	9
CC(C)C[C@H](NC(=O)[C@H](CCCNC(=N)N)NC(=O)[C@H](CO)NC(=O)[C@H](CCCCN)NC(=O)[C@H](CCCCN)NC(=O)[C@@H](NC(=O)[C@@H]1CCCN1C(=O)[C@H](CCC(=O)O)NC(=O)[C@H](CC(C)C)NC(=O)[C@H](CO)NC(=O)[C@H](CC(C)C)NC(=O)[C@H](Cc1ccccc1)NC(=O)[C@H](CCCNC(=N)N)NC(=O)[C@@H](N)CC(=O)O)C(C)C)C(=O)N[C@@H](CCC(N)=O)C(=O)O [Peptide 9019.0007]	10
CC(C)C[C@H](NC(=O)[C@@H](N)Cc1ccc(O)cc1)C(=O)N[C@@H](Cc1c[nH]c2ccccc12)C(=O)N[C@@H](Cc1c[nH]c2ccccc12)C(=O)N[C@H](C(=O)N[C@@H](CC(N)=O)C(=O)N[C@@H](CC(N)=O)C(=O)N[C@@H](CCC(N)=O)C(=O)N[C@@H](CO)C(=O)N[C@@H](CC(C)C)C(=O)N1CCC[C@H]1C(=O)N[C@H](C(=O)N[C@@H](CO)C(=O)N1CCC[C@H]1C(=O)N[C@@H](CCCNC(=N)N)C(=O)O)C(C)C)C(C)C [Peptide 9019.0118]	13
CSCC[C@H](NC(=O)[C@H](C)NC(=O)[C@H](CC(C)C)NC(=O)[C@@H]1CCCN1C(=O)[C@H](Cc1ccccc1)NC(=O)[C@@H](N)C(C)C)C(=O)N[C@@H](CC(N)=O)C(=O)N[C@@H](Cc1ccc(O)cc1)C(=O)N[C@@H](CC(C)C)C(=O)N[C@@H](CC(=O)O)C(=O)N[C@@H](CCCNC(=N)N)C(=O)N[C@@H](Cc1ccccc1)C(=O)N[C@@H](CC(C)C)C(=O)N[C@@H](CO)C(=O)N[C@@H](CC(C)C)C(=O)O [Peptide 9019.0153]	10
CSCC[C@H](N)C(=O)N[C@@H](CCC(=O)O)C(=O)N[C@@H](CC(C)C)C(=O)N[C@@H](CC(C)C)C(=O)N[C@@H](CC(C)C)C(=O)N[C@H](C(=O)N[C@@H](CC(N)=O)C(=O)N[C@@H](CCCCN)C(=O)N[C@@H](CC(C)C)C(=O)N[C@@H](CCCCN)C(=O)N[C@@H](Cc1c[nH]c2ccccc12)C(=O)N[C@@H](CC(N)=O)C(=O)N[C@@H](CC(C)C)C(=O)N[C@@H](C)C(=O)N[C@@H](C)C(=O)O)C(C)C [Peptide 9019.0163]	10
CSCC[C@H](NC(=O)[C@H](C)NC(=O)[C@H](C)NC(=O)[C@H](CC(C)C)NC(=O)[C@H](CC(N)=O)NC(=O)[C@H](Cc1c[nH]c2ccccc12)NC(=O)[C@H](CCCCN)NC(=O)[C@H](CC(C)C)NC(=O)[C@H](CCCCN)NC(=O)[C@H](CC(N)=O)NC(=O)[C@@H](N)C(C)C)C(=O)N[C@H](C(=O)N1CCC[C@H]1C(=O)N[C@@H](Cc1c[nH]cn1)C(=O)N[C@@H](CC(=O)O)C(=O)O)[C@@H](C)O [Peptide 9019.0164]	10
CC[C@H](C)[C@H](NC(=O)[C@H](Cc1ccccc1)NC(=O)[C@H](CC(=O)O)NC(=O)[C@H](Cc1c[nH]cn1)NC(=O)[C@@H]1CCCN1C(=O)[C@@H](NC(=O)[C@H](CCSC)NC(=O)[C@H](C)NC(=O)[C@H](C)NC(=O)[C@H](CC(C)C)NC(=O)[C@H](CC(N)=O)NC(=O)[C@H](Cc1c[nH]c2ccccc12)NC(=O)[C@@H](N)CCCCN)[C@@H](C)O)C(=O)N[C@@H](CCC(=O)O)C(=O)N[C@@H](Cc1c[nH]cn1)C(=O)O [Peptide 9019.0165]	8
CC[C@H](C)[C@H](NC(=O)[C@H](Cc1ccccc1)NC(=O)[C@H](CCCCN)NC(=O)[C@@H](N)C(C)C)C(=O)N[C@@H](CO)C(=O)N[C@@H](CC(N)=O)C(=O)N1CCC[C@H]1C(=O)N1CCC[C@H]1C(=O)N[C@@H](CO)C(=O)N[C@@H](CCSC)C(=O)N[C@H](C(=O)N[C@@H](C)C(=O)N[C@@H](C)C(=O)NCC(=O)N[C@@H](CO)C(=O)O)C(C)C [Peptide 9019.0169]	13
CC(C)[C@H](NC(=O)[C@H](C)NC(=O)[C@H](C)NC(=O)[C@@H](NC(=O)[C@H](C)NC(=O)[C@H](C)NC(=O)[C@@H]1CCCN1C(=O)[C@@H]1CCCN1C(=O)[C@H](C)NC(=O)[C@@H](NC(=O)[C@@H]1CCCN1C(=O)[C@@H]1CCCN1C(=O)[C@@H]1CCCN1)C(C)C)C(C)C)C(=O)N[C@@H](C)C(=O)NCC(=O)O [Peptide 9019.0180]	5

Continued, values first:

Total XRN	SMILES
7	CC[C@H](C)[C@H](NC(=O)[C@@H](NC(=O)[C@H](CCC(=O)O)NC(=O)[C@@H](NC(=O)[C@H](CCC(=O)O)NC(=O)[C@H](CS)NC(=O)[C@H](CS)NC(=O)[C@H](CC(C)C)NC(=O)[C@H](CC(C)C)NC(=O)[C@H](CCC(N)=O)NC(=O)[C@@H](N)Cc1c[nH]cn1)C(C)C)[C@@H](C)O)C(=O)N[C@@H](CCCNC(=N)N)C(=O)N[C@@H](CCCNC(=N)N)C(=O)N[C@@H](C)C(=O)N[C@@H](Cc1ccc(O)cc1)C(=O)O [Peptide 9019.0006]
8	CC[C@H](C)[C@H](NC(=O)[C@H](CCCCN)NC(=O)[C@H](CCCNC(=N)N)NC(=O)[C@H](CCSC)NC(=O)[C@H](CO)NC(=O)[C@@H]1CCCN1C(=O)[C@H](CC(C)C)NC(=O)[C@@H](NC(=O)[C@H](CCC(=O)O)NC(=O)[C@H](CCCCN)NC(=O)[C@@H](N)CCC(N)=O)C(C)C)C(=O)N[C@H](C(=O)N[C@@H](C)C(=O)N[C@H](C(=O)N[C@@H](Cc1c[nH]c2ccccc12)C(=O)O)[C@@H](C)O)C(C)C [Peptide 9019.0012]
11	CC[C@H](C)[C@H](NC(=O)[C@H](CCC(N)=O)NC(=O)[C@H](CCCNC(=N)N)NC(=O)[C@@H](N)CC(N)=O)C(=O)N[C@H](C(=O)NCC(=O)N[C@@H](Cc1ccc(O)cc1)C(=O)N[C@H](C(=O)N[C@H](C(=O)NCC(=O)N[C@H](C(=O)N[C@@H](CCC(N)=O)C(=O)N[C@@H](CCC(N)=O)C(=O)N[C@@H](C)C(=O)N[C@H](C(=O)O)[C@@H](C)O)[C@@H](C)O)[C@@H](C)CC)C(C)C)[C@@H](C)CC [Peptide 9019.0109]
10	CC(C)C[C@H](NC(=O)[C@H](CC(N)=O)NC(=O)[C@H](CO)NC(=O)[C@@H](NC(=O)[C@H](Cc1ccccc1)NC(=O)[C@H](CS)NC(=O)[C@H](C)NC(=O)[C@H](Cc1ccc(O)cc1)NC(=O)[C@@H](NC(=O)CNC(=O)[C@@H](N)CC(N)=O)[C@@H](C)O)C(C)C)C(=O)N[C@@H](C)C(=O)N[C@H](C(=O)NCC(=O)N[C@@H](CCCNC(=N)N)C(=O)O)[C@@H](C)O [Peptide 9019.0140]
12	CC[C@H](C)[C@H](NC(=O)[C@H](CO)NC(=O)[C@H](CC(N)=O)NC(=O)[C@@H](N)CC(N)=O)C(=O)N[C@H](C(=O)N[C@@H](CCCCN)C(=O)N[C@@H](CO)C(=O)N[C@H](C(=O)N[C@H](C(=O)N[C@H](C(=O)N[C@@H](CO)C(=O)N[C@@H](C)C(=O)N[C@@H](CO)C(=O)NCC(=O)N[C@H](C(=O)O)[C@@H](C)O)C(C)C)[C@@H](C)O)[C@@H](C)CC)C(C)C [Peptide 9019.0142]
10	CSCC[C@H](NC(=O)[C@H](CS)NC(=O)[C@@H](NC(=O)[C@H](C)NC(=O)CNC(=O)[C@H](CC(C)C)NC(=O)[C@H](CC(C)C)NC(=O)[C@H](CCC(N)=O)NC(=O)[C@H](CC(C)C)NC(=O)[C@@H](N)CCCNC(=N)N)[C@@H](C)O)C(=O)N[C@@H](Cc1ccccc1)C(=O)N[C@H](C(=O)N[C@@H](C)C(=O)N[C@@H](CO)C(=O)N[C@@H](CCCCN)C(=O)O)C(C)C [Peptide 9019.0156]
15	CC[C@H](C)[C@H](NC(=O)[C@H](CCC(N)=O)NC(=O)[C@H](CCCCN)NC(=O)[C@@H](N)CC(N)=O)C(=O)N[C@H](C(=O)N[C@@H](CCCNC(=N)N)C(=O)N[C@@H](CCCCN)C(=O)N[C@@H](Cc1c[nH]cn1)C(=O)N[C@@H](C)C(=O)N[C@@H](CCC(N)=O)C(=O)N[C@H](C(=O)N[C@@H](Cc1ccccc1)C(=O)N[C@H](C(=O)N[C@@H](C)C(=O)N[C@@H](CC(C)C)C(=O)O)C(C)C)[C@@H](C)O)[C@@H](C)CC [Peptide 9019.0167, NKQTRKIIAQTFVAL]
14	CC[C@H](C)[C@H](NC(=O)[C@H](Cc1ccccc1)NC(=O)[C@H](CCCCN)NC(=O)[C@@H](NC(=O)[C@H](CC(=O)O)NC(=O)[C@@H](NC(=O)[C@H](C)NC(=O)[C@H](CS)NC(=O)[C@H](CC(C)C)NC(=O)[C@H](C)NC(=O)[C@@H](NC(=O)[C@H](Cc1ccccc1)NC(=O)[C@@H](NC(=O)[C@H](CCC(N)=O)NC(=O)[C@H](C)N)[C@@H](C)O)C(C)C)[C@@H](C)O)C(C)C)C(=O)O [Peptide 9019.0168]
6	CC(C)C[C@H](NC(=O)CNC(=O)[C@H](CCC(N)=O)NC(=O)[C@@H](NC(=O)[C@H](C)NC(=O)[C@H](C)NC(=O)[C@@H](N)C(C)C)C(C)C)C(=O)N[C@@H](CC(N)=O)C(=O)N[C@@H](CC(C)C)C(=O)N[C@@H](CCCNC(=N)N)C(=O)N[C@@H](CO)C(=O)N1CCC[C@H]1C(=O)N[C@@H](CC(N)=O)C(=O)N[C@@H](CC(N)=O)C(=O)N[C@@H](Cc1ccccc1)C(=O)O [Peptide 9019.0171]
9	CSCC[C@H](NC(=O)CNC(=O)[C@H](CO)NC(=O)[C@H](CCCCN)NC(=O)[C@@H](N)CC(C)C)C(=O)N[C@@H](CCCCN)C(=O)N[C@@H](CCC(=O)O)C(=O)N[C@@H](CC(C)C)C(=O)N[C@@H](C)C(=O)N[C@H](C(=O)N[C@@H](Cc1ccccc1)C(=O)N[C@@H](CCCNC(=N)N)C(=O)N[C@@H](CCC(=O)O)C(=O)N[C@@H](CCCCN)C(=O)N[C@H](C(=O)O)C(C)C)C(C)C [Peptide 9019.0185]
